Laboratory results taken from paper PMC4336329 (PLoS ONE, 2015).
Out of some 310,000 compounds screened, about 14,000 (4.5%) showed an effect of 50% or more. The effect is printed as a negative number. The list shows a part of the results.

biological target: human ether-à-go-go-related gene (hERG) potassium channel (human, UniProt Q12809); assay: primary screen, population patch clamp on CHO cells stably expressing hERG
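Further: peak tail current of the secondary pulse compared with the same well before compound.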

Chain of human ether-à-go-go-related gene (hERG) potassium channel (Q12809 whole entry, looked up): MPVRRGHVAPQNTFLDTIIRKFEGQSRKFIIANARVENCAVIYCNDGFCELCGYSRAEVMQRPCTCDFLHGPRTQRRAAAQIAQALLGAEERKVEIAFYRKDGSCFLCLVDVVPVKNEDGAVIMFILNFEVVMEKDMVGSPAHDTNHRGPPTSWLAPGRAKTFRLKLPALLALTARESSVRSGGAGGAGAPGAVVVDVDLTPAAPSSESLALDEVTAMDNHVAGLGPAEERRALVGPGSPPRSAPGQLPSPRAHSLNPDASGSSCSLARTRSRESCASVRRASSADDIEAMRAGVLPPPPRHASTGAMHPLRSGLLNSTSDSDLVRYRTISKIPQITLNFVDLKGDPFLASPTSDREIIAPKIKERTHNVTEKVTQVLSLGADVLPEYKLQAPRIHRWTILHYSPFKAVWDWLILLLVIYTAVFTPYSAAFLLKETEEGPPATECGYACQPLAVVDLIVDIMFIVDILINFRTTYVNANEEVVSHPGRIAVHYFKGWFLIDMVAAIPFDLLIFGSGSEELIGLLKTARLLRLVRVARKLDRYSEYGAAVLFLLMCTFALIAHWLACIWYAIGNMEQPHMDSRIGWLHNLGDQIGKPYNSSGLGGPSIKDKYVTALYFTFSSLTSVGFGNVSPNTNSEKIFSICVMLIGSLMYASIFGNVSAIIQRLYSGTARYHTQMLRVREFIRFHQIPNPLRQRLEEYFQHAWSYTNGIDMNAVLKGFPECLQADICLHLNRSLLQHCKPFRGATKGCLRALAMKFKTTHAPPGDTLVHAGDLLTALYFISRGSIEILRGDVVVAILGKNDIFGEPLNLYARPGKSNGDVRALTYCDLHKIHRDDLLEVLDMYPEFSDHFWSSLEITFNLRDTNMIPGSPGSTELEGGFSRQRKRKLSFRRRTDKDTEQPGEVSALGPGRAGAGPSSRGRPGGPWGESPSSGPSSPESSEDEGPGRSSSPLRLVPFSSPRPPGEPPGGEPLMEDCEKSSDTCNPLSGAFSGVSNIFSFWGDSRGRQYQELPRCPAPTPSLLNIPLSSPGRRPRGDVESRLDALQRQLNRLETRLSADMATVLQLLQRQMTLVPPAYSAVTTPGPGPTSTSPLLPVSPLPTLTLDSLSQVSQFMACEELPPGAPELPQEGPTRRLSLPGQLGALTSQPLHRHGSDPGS

Row | SMILES | hERG current change (%, negative = inhibition) at 10uM [%]
1 | O=S(=O)(NC(=NC1CCCCC1)c1ccccc1F)c1ccccc1 | 10.4
2 | C[C@@H]1CC[C@H](O)/C=C/C(=O)O[C@H](C)CC[C@H](O)/C=C/C(=O)O1 | 6.34
3 | Cc1ccc2cccc(NC3OC(=O)c4ccccc43)c2n1 (stereo not drawn) | 12
4 | CC(=O)c1ccc(NC(=S)N2CCC(O)CC2)cc1 | 25.5
5 | Cc1cc(Cn2nc(C(=O)NCc3cccc(C(F)(F)F)c3)cc2-c2ccccc2)on1 | -57
6 | Fc1ccc(N2N=C(c3cccs3)CC2c2ccccc2)cc1 (stereo not drawn) | 8.89
7 | CC(C)COc1cccc(C(=O)NC(=S)NCc2cccnc2)c1 | -13.1
8 | COc1ccc(NC2CCCN(C(=O)c3cc(C)nc4cc(F)ccc34)C2)cc1 (stereo not drawn) | 13.4
9 | CCCCCCC(=O)N/N=C1\CCCc2ccccc21 | -6.63
10 | Cc1cc(C)n2nc(C(=O)OCC(=O)c3ccccc3Cl)nc2n1 | -0.0673
11 | O=C(CCn1c(=O)oc2ccccc21)NCCN1CCOCC1 | -2.83
12 | O=S(=O)(NC1c2cccc3cccc(c23)C1Sc1ncccn1)c1ccc(Cl)cc1 (stereo not drawn) | -1.02
13 | Cc1ccc(-c2c(C#N)c(N)n3c(nc4ccccc43)c2C#N)cc1 | 4.85
14 | Cc1cc2cc(C=O)c(Cl)nc2cc1C | 16
15 | CCOc1ccc(Cc2c(Cl)nc(SC)nc2N(C)C)cc1 | -6.22
16 | CCOC(=O)c1sc(/S(C)=N\S(=O)(=O)c2cccc(Cl)c2)c2c1CCC=C2 (stereo not drawn) | -51.9
17 | CN(C)C(=S)NC(=O)C(c1ccccc1)c1ccccc1 | 13.5
18 | CCCCOc1ccccc1NC(=O)Cn1c(-c2nonc2N)nc2ccccc21 | 2.58
19 | Cc1ccc2c(c1)cc(CN(Cc1cccnc1)C(=O)c1ccccc1)c1nnnn12 | -78
20 | CC(C)N(C(=O)CS(=O)(=O)c1ccc(Cl)c(Cl)c1)C(C)C | 0.756
21 | COc1ccc(C(=O)Nc2ccc(Cn3ccnc3)cc2)cc1OC | 7.54
22 | COC(=O)c1ccc(C)c(NC(=O)COC(=O)C2CC3CCCC(C2)C3=O)c1 (stereo not drawn) | -12.9
23 | CC(=O)N(C(C)=O)n1c(/C=C/c2cccc([N+](=O)[O-])c2)nc2ccccc2c1=O | 15.1
24 | CCN(CC)S(=O)(=O)c1ccc(OC)c(NC(=O)c2cccc([N+](=O)[O-])c2C)c1 | -63.8
